From the supplement of paper PMC7266297
Structures can show the parent of a compound that is named as a salt. The list shows a part of the results. Repeats are few or missing, and single values can be far off.

Legend:
KB-3-1 = test: growth inhibition relative to DMSO control (SRB); cervical cancer cells: KB-3-1 is the parent and KB-V1 overexpresses MDR1; SRB is the sulforhodamine B stain; higher = more growth inhibition; conditions: 1 µM; 72 h
KB-V1 = test: as above; conditions: 1 µM; 72 h
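Note: Read-out is SRB optical density at 490 nm, with the control being wells given 0.5% DMSO vehicle, and compound added one day after cells were plated.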

Row | SMILES | growth inhibition (KB-3-1) | growth inhibition (KB-V1)
1 | CC(C)(Cc1ccc2ccccc2c1)NC[C@@H](O)COc1cccc(Cl)c1C#N | < 0% | 35.9%
2 | CC1(C)CCC(CN2CCN(c3ccc(C(=O)NS(=O)(=O)c4ccc(NCC5CCOCC5)c([N+](=O)[O-])c4)c(Oc4cnc5[nH]ccc5c4)c3)CC2)=C(c2ccc(Cl)cc2)C1 | 35.7% | < 0%
3 | CN1CCN(C(=O)c2cc3cc(Cl)ccc3[nH]2)CC1 | < 0% | 3.51%
4 | O=C(Nc1cccc(Nc2ncc(Br)c(NCCc3cnc[nH]3)n2)c1)N1CCCC1 | 54.3% | 28.8%
5 | CCC(C)(Oc1ccc(C2(c3ccc(OC(C)(CC)C(=O)O)cc3)CCCCC2)cc1)C(=O)O (stereo unspecified) [Clinofibrate] | < 0% | < 0%
6 | C[C@]12CC[C@@H]3c4ccc(O)cc4CC[C@H]3[C@@H]1C[C@@H](O)[C@@H]2O [Estriol] | < 0% | 6.72%
7 | O=C(NCCCNc1nc(Nc2cccc(NC(=O)N3CCCC3)c2)ncc1I)c1cccs1 | 83.6% | 60.4%
8 | CCCCCCCCCCCCCCCCn1cc[n+](Cc2ccccc2)c1C | 99.1% | 89.5%
9 | O=C(O)C(O)Cc1ccc(O)c(O)c1 (stereo unspecified) [Sodium Danshensu] | < 0% | < 0%
10 | CC(C)C[C@H](NC(=O)CNC(=O)c1cc(Cl)ccc1Cl)B(O)O | < 0% | < 0%
11 | Fc1ccc([C@@H]2CCNC[C@H]2COc2ccc3c(c2)OCO3)cc1 [Paroxetine HCl] | 5.06% | 15.9%
12 | CN1CCC(=C2c3ccccc3CC(=O)c3sccc32)CC1 [Ketotifen Fumarate] | 55.4% | 9.56%
13 | CC1(C)CNc2cc(NC(=O)c3cccnc3NCc3ccncc3)ccc21 [Motesanib Diphosphate (AMG-706)] | 68.1% | 38.6%
14 | N[C@@]1(C(=O)O)CS(=O)(=O)[C@H]2[C@H](C(=O)O)[C@H]21 | 36.2% | 14.5%
15 | Cc1ccccc1C(C(=O)NC1CCCCC1)N(C(=O)Cn1ccnc1C)c1cccc(F)c1 (stereo unspecified) | < 0% | < 0%
16 | CCCCc1oc2ccccc2c1C(=O)c1cc(I)c(OCCN(CC)CC)c(I)c1 [Amiodarone HCl] | 37% | 18.4%
17 | CCOC(=O)C1=C(C)NC(C)=C(C(=O)OC)C1c1cccc(Cl)c1Cl (stereo unspecified) [Felodipine] | 48.5% | 22.1%
18 | O=C(c1ccc(/C=C/c2n[nH]c3ccccc23)cc1)N1CCNCC1 | < 0% | 29%
19 | NC(=S)N/N=C/c1ncccc1N [Triapine] | 52.8% | 6.79%
20 | CCOC(=O)c1ccc(OC(=O)CCCCCNC(=N)N)cc1 [Gabexate Mesylate] | 84.9% | 96.3%
21 | COc1c(N2C[C@@H]3CCCN[C@@H]3C2)c(F)cc2c(=O)c(C(=O)O)cn(C3CC3)c12 [Moxifloxacin HCl] | 33.7% | 22.1%
22 | CCCCN1CCCCC1C(=O)Nc1c(C)cccc1C (stereo unspecified) [Bupivacaine HCl] | 30.4% | 24%
23 | CN1CCc2c(c3ccccc3n2Cc2ccc(C(=O)NO)cc2)C1 [Tubastatin A] | 37.3% | 0.617%
24 | N#Cc1ccc(C(c2ccc(C#N)cc2)n2cncn2)cc1 [Letrozole] | 38.1% | 30.4%

Row | SMILES | growth inhibition (KB-3-1) | growth inhibition (KB-V1)
25 | c1cn2cc(-c3ccc4cn[nH]c4c3)nc(Nc3ccc(N4CCOCC4)cc3)c2n1 | 45.9% | < 0%
26 | CCN1/C(=C/C(C)=O)Sc2ccc(OC)cc21 | < 0% | < 0%
27 | C/C(=C\C(=O)Nc1ccccc1C(=O)O)c1ccc2ccccc2c1 | 35% | 37.6%
28 | CN(C)CCOc1ccc(/C(=C(/CCCl)c2ccccc2)c2ccccc2)cc1 [Toremifene Citrate] | 51.5% | 23.3%
29 | CN(C)CC/C=C1/c2ccccc2COc2ccc(CC(=O)O)cc21 [Olopatadine HCl] | 27.8% | 2.13%
30 | CNS(=O)(=O)Cc1ccc2[nH]cc(CCN(C)C)c2c1 [Sumatriptan Succinate] | 12.7% | 34.4%
31 | COc1ccc(-c2nc3cc(C4=NNC(=O)CC4C)ccc3[nH]2)cc1 (stereo unspecified) [Pimobendan] | 43.1% | 14.7%
32 | O=C1Nc2ccc(I)cc2/C1=C/c1cc(Br)c(O)c(Br)c1 | < 0% | 21.9%
33 | CCCCOc1cc(C(=O)NCCN(CC)CC)c2ccccc2n1 [Dibucaine HCl] | 32.8% | 16.9%
34 | C#Cc1cccc(Nc2ncnc3cc(OCCOC)c(OCCOC)cc23)c1 [Erlotinib HCl (OSI-744)] | 32.4% | 8.7%
35 | Cc1c(NC(=O)OC[C@@H]2COCCN2)cn2ncnc(Nc3ccc4c(cnn4Cc4cccc(F)c4)c3)c12 | 18% | 17.1%
36 | CC(C)n1nc(-c2cc3cc(O)ccc3[nH]2)c2c(N)ncnc21 | 12.8% | 14%
37 | CCn1c2ccccc2c2cc(Nc3ccnc(NCCCN4CCOCC4)n3)ccc21 | 2.29% | < 0%
38 | O=C(NC1CCOCC1)c1ccc(-c2cc(-c3c[nH]nc3-c3ccccn3)ccn2)cc1 | < 0% | 10.9%
39 | CN(C)CC(c1ccc(O)cc1)C1(O)CCCCC1 (stereo unspecified) [Desvenlafaxine] | 17.1% | < 0%
40 | CCCOc1ccc(C(=O)OCCN(CC)CC)cc1N [Proparacaine HCl] | 49.5% | 24.3%
41 | C=CC(=O)Nc1cccc(Sc2nc(Nc3ccc(N4CCN(C)CC4)cc3)ncc2Cl)c1 | 73.5% | 72.8%
42 | COc1ccc(CNC(=O)Nc2ncc([N+](=O)[O-])s2)cc1 | 47.2% | 14.2%
43 | CS(=O)(=O)c1ccc(-c2cnc(N)c(C(=O)Nc3ccccc3)n2)cc1 | 44.8% | 1.85%
44 | CN1C2CCCC1CC(NC(=O)c1nn(C)c3ccccc13)C2 (stereo unspecified) [Granisetron HCl] | 10.4% | 31.4%
45 | CNCCCC12CCC(c3ccccc31)c1ccccc12 [Maprotiline HCl] | 32.9% | 12.9%
46 | NC(=O)c1cn(Cc2c(F)cccc2F)nn1 [Rufinamide] | 36% | 37.5%
47 | C[C@]1(O)C[C@@H](c2nc(-c3ccc4ccc(-c5ccccc5)nc4c3)c3c(N)nccn32)C1 [OSI-906 (Linsitinib)] | 60.9% | 58.8%
48 | OC(CNCC(O)C1CCc2cc(F)ccc2O1)C1CCc2cc(F)ccc2O1 (stereo unspecified) [Nebivolol] | 28.6% | 25.7%
